Experimental data as given in ChEMBL document CHEMBL5606458, “ASAP - ZIKV NS2B-NS3 protease fluorescence single point” (2024).
The whole screen tested about 2,700 compounds, of which about 160 (5.9%) showed an effect of 50% or more. Some of the results follow.

Biological target: Nonstructural protein 3 (Zika virus) (UniProt A0A024AXB9)
[1] = PRVABC59, Concentration 15.0 uM, Number of replicates 1.0
[2] = PRVABC59, Concentration 50.0 uM, Number of replicates 1.0

Chain of UniProt A0A024AXB9 (A0A024AXB9 as listed by the source): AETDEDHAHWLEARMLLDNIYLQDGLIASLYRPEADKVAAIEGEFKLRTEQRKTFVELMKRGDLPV

COc1ccccc1OCCCN(C)C(=O)c1cc(Cl)ccc1NS(=O)(=O)c1ccc(Oc2ccccc2Cl)cc1
inhibition [1]: 13%

O=Cc1ccc(N2CCC(C(=O)N3CCC(N4CCOCC4)CC3)CC2)cc1
inhibition [2]: 27.1%

O=Cc1ccc(N2CCC(C(=O)N3CC4C[C@H]5CC3C[C@H](C4)C5)CC2)cc1
inhibition [2]: 26.4%

CC(C)(CO)NC(=O)c1cc(Cl)cc(NC(=O)Cn2cnccc2=O)c1
inhibition (PRVABC59, Concentration 49.5 uM, Number of replicates 2.0, Standard deviation 1.6711835088733193 %): -1.4%
inhibition (PRVABC59, Concentration 99.01 uM, Number of replicates 2.0, Standard deviation 3.2749476966100057 %): -0.302%
inhibition (PRVABC59, Concentration 198.0 uM, Number of replicates 2.0, Standard deviation 4.3005396673800345 %): 1.11%

COc1ccccc1CN(CCCO)C(=O)c1cc(Cl)ccc1NS(=O)(=O)c1ccc(Oc2ccccc2Cl)cc1
inhibition [1]: 23.2%

CC1(C)C[C@H](NC(=O)c2ccnc3[nH]ncc23)CN(C(=O)c2cnc[nH]2)C1
inhibition (PRVABC59, Concentration 49.5 uM, Number of replicates 2.0, Standard deviation 2.146240510678679 %): 0.613%
inhibition (PRVABC59, Concentration 99.01 uM, Number of replicates 2.0, Standard deviation 1.6633364611035912 %): -0.6%
inhibition (PRVABC59, Concentration 198.0 uM, Number of replicates 2.0, Standard deviation 2.42246977570732 %): -3.3%

O=Cc1ccc(N2CCC(C(=O)N3CCC(c4cccc(Cl)c4)CC3)CC2)cc1
inhibition [2]: -4.34%

C#CCN(C(=O)C1CCN(c2ccc(C=O)cc2)CC1)[C@@H](C)Cc1ccccc1
inhibition [2]: 29.9%

COc1cc(Cn2cc(C3CCNCC3)c(C)n2)ccn1
inhibition (PRVABC59, Concentration 49.5 uM, Number of replicates 2.0, Standard deviation 1.8611836725231279 %): 0.683%
inhibition (PRVABC59, Concentration 99.01 uM, Number of replicates 2.0, Standard deviation 2.3024742735653634 %): 1.42%
inhibition (PRVABC59, Concentration 198.0 uM, Number of replicates 2.0, Standard deviation 2.257528084059936 %): 2.51%

O=C(NCCCCN1CCOCC1)c1cc(Cl)ccc1NS(=O)(=O)c1ccc(Oc2ccccc2Cl)cc1
inhibition [1]: 6.37%

COc1c(Cl)cccc1NC(=O)C1CCN(c2ccc(C=O)cc2)CC1
inhibition [2]: 25.5%

O=C(NC[C@H](O)c1ccc(O)cc1)c1cc(Cl)ccc1NS(=O)(=O)c1ccc(Oc2ccccc2Cl)cc1
inhibition [1]: 18.8%

O=Cc1ccc(N2CCC(C(=O)N3CCC4(CC3)CNC(=O)C4)CC2)cc1
inhibition [2]: 25.4%

O=C(Nc1ccc(F)c(F)c1Br)c1cc(Cl)ccc1NS(=O)(=O)c1ccc(Oc2ccccc2Cl)cc1
inhibition [1]: 22.3%

O=Cc1ccc(N2CCC(C(=O)NCC(=O)Nc3ccc(F)c(F)c3)CC2)cc1
inhibition [2]: 22.6%

O=Cc1ccc(N2CCC(C(=O)Nc3cc(Br)ccc3F)CC2)cc1
inhibition [2]: 20.2%

O=Cc1ccc(N2CCC(C(=O)NCC3(c4ccccc4)CCCC3)CC2)cc1
inhibition [2]: -8.82%

CC(C)n1c(CNC(=O)C2CCN(c3ccc(C=O)cc3)CC2)nc2ccccc21
inhibition (PRVABC59, Concentration 10.0 uM, Number of replicates 1.0): 17.5%

c1ccc2c([C@H]3CCCN(Cc4n[nH]c5ccccc45)C3)c[nH]c2c1
inhibition (PRVABC59, Concentration 49.5 uM, Number of replicates 2.0, Standard deviation 3.6587058790697027 %): 14.8%
inhibition (PRVABC59, Concentration 99.01 uM, Number of replicates 2.0, Standard deviation 26.693125215040073 %): 4.19%
inhibition (PRVABC59, Concentration 198.0 uM, Number of replicates 2.0, Standard deviation 3.5149783821517926 %): 23.4%

Cc1cc(CO)c2cccc(NC(=O)Cc3c[nH]c4ccccc34)c2n1
inhibition (PRVABC59, Concentration 49.95 uM, Number of replicates 2.0, Standard deviation 1.957076435136205 %): 0.348%
inhibition (PRVABC59, Concentration 99.9 uM, Number of replicates 2.0, Standard deviation 1.2143902959611252 %): 15.2%

Cc1cnccc1NC(=O)c1ccc2c(c1)COCC2
inhibition (PRVABC59, Concentration 49.5 uM, Number of replicates 2.0, Standard deviation 2.69695726690351 %): -1.9%
inhibition (PRVABC59, Concentration 99.01 uM, Number of replicates 2.0, Standard deviation 3.0402064405563363 %): 0.025%
inhibition (PRVABC59, Concentration 198.0 uM, Number of replicates 2.0, Standard deviation 1.8497312779646569 %): 0.206%

O=C(NCc1ccc(-c2ncc[nH]2)cc1)[C@@]1(c2ccc(F)cc2)CCCNC1
inhibition (PRVABC59, Concentration 49.5 uM, Number of replicates 2.0, Standard deviation 2.3187650947227487 %): 1.31%
inhibition (PRVABC59, Concentration 99.01 uM, Number of replicates 2.0, Standard deviation 2.204769965646303 %): 2.13%
inhibition (PRVABC59, Concentration 198.0 uM, Number of replicates 2.0, Standard deviation 1.9171913551037998 %): 4.87%

Cc1nnccc1Cn1cc(C2CCNCC2)c(C)n1
inhibition (PRVABC59, Concentration 49.5 uM, Number of replicates 2.0, Standard deviation 2.7090336165782265 %): -2.75%
inhibition (PRVABC59, Concentration 99.01 uM, Number of replicates 2.0, Standard deviation 2.112474130988979 %): -1.31%
inhibition (PRVABC59, Concentration 198.0 uM, Number of replicates 2.0, Standard deviation 2.1104311573378225 %): -0.938%

c1ccc(-c2coc(CNCc3nnc4ccccn34)c2)cc1
inhibition (PRVABC59, Concentration 49.5 uM, Number of replicates 2.0, Standard deviation 1.1547683946800986 %): -0.032%
inhibition (PRVABC59, Concentration 99.01 uM, Number of replicates 2.0, Standard deviation 0.7824365600264931 %): -0.626%
inhibition (PRVABC59, Concentration 198.0 uM, Number of replicates 2.0, Standard deviation 0.5665918856495316 %): 1.91%

COc1ccccc1N1CCN(CCCNC(=O)c2cc(Cl)ccc2NS(=O)(=O)c2ccc(Oc3ccccc3Cl)cc2)CC1
inhibition [1]: 0.762%

O=C(c1nc2ccccc2[nH]1)N1CC[C@H](n2cc3ccccc3n2)C1
inhibition (PRVABC59, Concentration 49.5 uM, Number of replicates 2.0, Standard deviation 1.8149018809985271 %): 2.53%
inhibition (PRVABC59, Concentration 99.01 uM, Number of replicates 2.0, Standard deviation 1.0997073724638302 %): 4.57%
inhibition (PRVABC59, Concentration 198.0 uM, Number of replicates 2.0, Standard deviation 2.2147953100610436 %): 4.59%

Cc1cc(CO)c2cccc(Cc3cccc(NC(=O)c4cc(C(=O)O)[nH]n4)c3)c2n1
inhibition (PRVABC59, Concentration 49.95 uM, Number of replicates 2.0, Standard deviation 0.809256243461067 %): 3.27%
inhibition (PRVABC59, Concentration 99.9 uM, Number of replicates 2.0, Standard deviation 2.152927108194932 %): 7.39%

O=Cc1ccc(N2CCC(C(=O)N3CCN(c4ncccn4)CC3)CC2)cc1
inhibition [2]: 22.4%

CNC(=O)c1cc(Cl)ccc1NS(=O)(=O)c1ccc2[nH]cnc2c1
inhibition (PRVABC59, Concentration 49.5 uM, Number of replicates 2.0, Standard deviation 2.3657282322003765 %): -9.41%

CS(=O)(=O)C1CCN(C(=O)c2cc(Cl)ccc2NS(=O)(=O)c2ccc(Oc3ccccc3Cl)cc2)CC1
inhibition [1]: -1.24%

C=CCN(Cc1cccc(OC)c1)C(=O)c1cc(Cl)ccc1NS(=O)(=O)c1ccc(Oc2ccccc2Cl)cc1
inhibition [1]: 28.9%

O=C(CNC(=O)c1cc(Cl)ccc1NS(=O)(=O)c1ccc(Oc2ccccc2Cl)cc1)Nc1ccc(F)c(F)c1
inhibition [1]: 48.8%

Cc1ccc(CNC(=O)C2CCN(C(=O)C3CCN(c4ccc(C=O)cc4)CC3)CC2)cc1
inhibition [2]: 28%

COc1ccccc1[C@H](C)NC(=O)c1cc(Cl)ccc1NS(=O)(=O)c1ccc(Oc2ccccc2Cl)cc1
inhibition [1]: 26.2%

Cc1ccc(C)n1CCN1CCN(C(=O)C2CCN(c3ccc(C=O)cc3)CC2)CC1
inhibition [2]: 10.3%

Cc1nn(Cc2ccc3[nH]cnc3c2)cc1C1CCNCC1
inhibition (PRVABC59, Concentration 49.5 uM, Number of replicates 2.0, Standard deviation 3.2905497434323143 %): 1.73%
inhibition (PRVABC59, Concentration 99.01 uM, Number of replicates 2.0, Standard deviation 4.369012930308915 %): 3.09%
inhibition (PRVABC59, Concentration 198.0 uM, Number of replicates 2.0, Standard deviation 1.1716639282832062 %): 2.4%

CN(Cc1ccc(N2CCOCC2)cc1)C(=O)C1CCN(c2ccc(C=O)cc2)CC1
inhibition [2]: 21.5%

CCS(=O)(=O)CCN(C)C(=O)C1CCN(c2ccc(C=O)cc2)CC1
inhibition [2]: 23.1%

Cc1nc([C@H]2CCN(C(=O)c3n[nH]cc3[C@H]3CCCNC3)C2)n[nH]1
inhibition (PRVABC59, Concentration 49.5 uM, Number of replicates 2.0, Standard deviation 7.696952726937103 %): -4.4%
inhibition (PRVABC59, Concentration 99.01 uM, Number of replicates 2.0, Standard deviation 2.0798394152552206 %): -7.33%
inhibition (PRVABC59, Concentration 198.0 uM, Number of replicates 2.0, Standard deviation 3.139088341959503 %): -5.94%

O=C(NCc1cc(F)cc(Cl)c1)c1cc(Cl)ccc1NS(=O)(=O)c1ccc(Oc2ccccc2Cl)cc1
inhibition [1]: 31.5%

CC(C)(O)CC(=O)Nc1cc(Cl)cc(C(=O)NC(C)(C)CO)c1
inhibition (PRVABC59, Concentration 49.5 uM, Number of replicates 2.0, Standard deviation 4.361404816398435 %): 3.87%
inhibition (PRVABC59, Concentration 99.01 uM, Number of replicates 2.0, Standard deviation 3.6424291033495835 %): 6.73%
inhibition (PRVABC59, Concentration 198.0 uM, Number of replicates 2.0, Standard deviation 1.2781790454201811 %): 5.16%

COc1c(C)cnc(CN(C)C(=O)C2CCN(c3ccc(C=O)cc3)CC2)c1C
inhibition [2]: 22.9%

CC[C@]1(c2ccc(NC(=O)C3CCN(c4ccc(C=O)cc4)CC3)cc2)CCC(=O)NC1=O
inhibition [2]: 21.4%
